Measured values as given in the supplement of paper PMC6135742.
Counter-ions that a name gives are not always drawn. ± gives the standard deviation of the averaged measurements. Over roughly 2,600 compounds, “MBP+ mature oligodendrocyte number relative to DMSO vehicle control” has its median near -0.34; the highest 2% begin near 13. This is one part of the list.

test system: jimpy (Plp1 jimpy) mouse iPSC-derived oligodendrocyte progenitor cells; assay: MBP+ mature oligodendrocyte number relative to DMSO vehicle control (SDs above negative control mean); higher = more surviving jimpy oligodendrocytes (rescue); conditions: 10 µM; 3 days
Protocol: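 Primary phenotypic screen of >3,000 bioactive compounds (Selleck L1700 and Sigma LO1280 libraries) at a single dose of 10 µM. Compounds were added to jimpy (Plp1 mutant) mouse iPSC-derived OPCs at the start of thyroid hormone-induced oligodendrocyte differentiation, one well per compound in 384-well plates. After 3 days cells were stained for MBP, Sox10 and DAPI and imaged with an Operetta system. MBP+ oligodendrocyte number and total cell number were expressed as the number of SDs above the mean of the DMSO negative control on the same plate (n=16 control wells per plate). Hits were defined as >=4 SD for oligodendrocytes and >=2 SD for total cells.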

Question: How did the “MBP+ mature oligodendrocyte number” value turn out when [I-].[K+] [Potassium Iodide] was run?
Answer: -0.197

Question: Which “MBP+ mature oligodendrocyte number” value does the source give for CCS(=O)(=O)Nc1ccc2c(c1)/C(=C(/Nc1ccc(CN3CCCCC3)cc1)c1ccccc1)C(=O)N2 [Hesperadin] here?
Answer: < -5.15

Question: With O=C(Nc1ccc(-c2ccnc(Nc3ccc(N4CCOCC4)cc3)n2)cc1)C1CCCN1 (centres undefined) as the compound, how does the “MBP+ mature oligodendrocyte number” value read?
Answer: -6.27

Question: COc1ccc2[nH]c([S+]([O-])Cc3ncc(C)c(OC)c3C)nc2c1 (centres undefined) [Omeprazole] was tested. Which “MBP+ mature oligodendrocyte number” value did it give?
Answer: 6.39

Question: For NC(=S)N/N=C/c1ncccc1N [Triapine], which “MBP+ mature oligodendrocyte number” value is on record?
Answer: -4.64

Question: With Nc1cccc2c1CN(C1CCC(=O)NC1=O)C2=O (centres undefined) [Lenalidomide (CC-5013)] as the compound, how does the “MBP+ mature oligodendrocyte number” value read?
Answer: 1.16

Question: Which “MBP+ mature oligodendrocyte number” value does the source give for CCOC(=O)[C@H](CCc1ccccc1)N[C@@H](C)C(=O)N1CCC[C@H]1C(=O)O [Enalapril Maleate] here?
Answer: 1.51

Question: Which “MBP+ mature oligodendrocyte number” value does the source give for NC[C@@H]1O[C@H](c2ccccc2)Cc2c1ccc(O)c2O here?
Answer: -0.675

Question: How did the “MBP+ mature oligodendrocyte number” value turn out when CNC(=O)[C@H](Cc1ccccc1)NC(=O)[C@H](CC(C)C)[C@H](CSc1cccs1)C(=O)NO [Batimastat (BB-94)] was run?
Answer: -5.76

Question: NOCC(=O)O [O-(Carboxymethyl)hydroxylamine hemihydrochloride] was tested. Which “MBP+ mature oligodendrocyte number” value did it give?
Answer: 1.92

Question: C=CC(=O)N1CCC[C@@H](n2nc(-c3ccc(Oc4ccccc4)cc3)c3c(N)ncnc32)C1 was tested. Which “MBP+ mature oligodendrocyte number” value did it give?
Answer: 0.104

Question: Which “MBP+ mature oligodendrocyte number” value does the source give for CC(=O)N1CCN(CCOc2ccc(C3CCN(C4=Nn5c(nnc5C(F)(F)F)CC4)CC3)cc2)CC1 here?
Answer: 0.66

Question: How did the “MBP+ mature oligodendrocyte number” value turn out when C=CC(=O)Nc1ccc2ncnc(Nc3ccc(OCc4cccc(F)c4)c(Cl)c3)c2c1 was run?
Answer: -4.75

Question: For CC1=C(CC(=O)O)c2cc(F)ccc2/C1=C\c1ccc([S+](C)[O-])cc1 (centres undefined) [Sulindac], which “MBP+ mature oligodendrocyte number” value is on record?
Answer: -0.886 ± 0.045

Question: With C[C@]12CC[C@@H]3c4ccc(O)cc4CC[C@H]3[C@@H]1C[C@@H](O)[C@@H]2O [Estriol] as the compound, how does the “MBP+ mature oligodendrocyte number” value read?
Answer: -0.78

Question: Which “MBP+ mature oligodendrocyte number” value does the source give for Cc1nc(N)sc1-c1ccnc(Nc2ccc(N3CCOCC3)cc2)n1 here?
Answer: < -6.7

Question: CCC[C@H](NC(=O)[C@@H]1[C@H]2CCC[C@H]2CN1C(=O)[C@@H](NC(=O)[C@@H](NC(=O)c1cnccn1)C1CCCCC1)C(C)(C)C)C(=O)C(=O)NC1CC1 [Telaprevir (VX-950)] was tested. Which “MBP+ mature oligodendrocyte number” value did it give?
Answer: -2.36

Question: How did the “MBP+ mature oligodendrocyte number” value turn out when Cc1noc(NS(=O)(=O)c2ccc(N)cc2)c1C [Sulfisoxazole] was run?
Answer: -0.377

Question: With O=CN(O)CCCP(=O)(O)O [Fosmidomycin sodium salt hydrate] as the compound, how does the “MBP+ mature oligodendrocyte number” value read?
Answer: -0.676

Question: How did the “MBP+ mature oligodendrocyte number” value turn out when CCc1cccc2c3c([nH]c12)C(CC)(CC(=O)O)OCC3 (centres undefined) [Etodolac] was run?
Answer: 2.18 ± 3.5

Question: C[C@@H]1CN(CC(=O)Nc2ccc3c(c2)Cc2cccc(-c4cc(=O)cc(N5CCOCC5)o4)c2S3)C[C@H](C)O1 was tested. Which “MBP+ mature oligodendrocyte number” value did it give?
Answer: -4.97

Question: Which “MBP+ mature oligodendrocyte number” value does the source give for COc1cc(Nc2ncc(F)c(Nc3ccc4c(n3)N(COP(=O)(O)O)C(=O)C(C)(C)O4)n2)cc(OC)c1OC [Fostamatinib (R788)] here?
Answer: < -6.01

Question: Which “MBP+ mature oligodendrocyte number” value does the source give for COc1ccc(-c2cc(=O)c3c(O)cc(O[C@@H]4O[C@H](CO[C@@H]5O[C@@H](C)[C@H](O)[C@@H](O)[C@H]5O)[C@@H](O)[C@H](O)[C@H]4O)cc3o2)cc1O [Diosmin] here?
Answer: 0.171

Question: O=C(Nc1ccc2c(c1)CCN(Cc1ncn[nH]1)C2)c1ccccc1-c1ccc(C(F)(F)F)cc1 was tested. Which “MBP+ mature oligodendrocyte number” value did it give?
Answer: 2

Question: Which “MBP+ mature oligodendrocyte number” value does the source give for CC1(C)S[C@@H]2[C@H](NC(=O)[C@H](NC(=O)N3CCN(S(C)(=O)=O)C3=O)c3ccccc3)C(=O)N2[C@H]1C(=O)O [Mezlocillin Sodium] here?
Answer: 5.05

Question: For Cn1c(=O)cc(N2CCC[C@@H](N)C2)n(Cc2ccccc2C#N)c1=O [Alogliptin], which “MBP+ mature oligodendrocyte number” value is on record?
Answer: -0.0546

Question: For CCCCCCCN(CC)CCCC(O)c1ccc(NS(C)(=O)=O)cc1 (centres undefined) [Ibutilide Fumarate], which “MBP+ mature oligodendrocyte number” value is on record?
Answer: 2.63

Question: For Cc1nnc(C(C)C)n1C1C[C@H]2CC[C@@H](C1)N2CC[C@H](NC(=O)C1CCC(F)(F)CC1)c1ccccc1 (stereo in doubt) [Maraviroc], which “MBP+ mature oligodendrocyte number” value is on record?
Answer: 0.883 ± 1.5

Question: c1ccc2[nH]c(-c3cscn3)nc2c1 [Thiabendazole] was tested. Which “MBP+ mature oligodendrocyte number” value did it give?
Answer: 2.95

Question: Cn1cc(-c2ccc3nnc(C(F)(F)c4ccc5ncccc5c4)n3n2)cn1 was tested. Which “MBP+ mature oligodendrocyte number” value did it give?
Answer: -2.16

Question: Which “MBP+ mature oligodendrocyte number” value does the source give for CCC(CC)CC1(C(=O)Nc2ccccc2SC(=O)C(C)C)CCCCC1 here?
Answer: -1.25

Question: How did the “MBP+ mature oligodendrocyte number” value turn out when CN1[C@@H](CC(=O)c2ccccc2)CCC[C@H]1C[C@H](O)c1ccccc1 [alpha-Lobeline hydrochloride] was run?
Answer: -1.03

Question: How did the “MBP+ mature oligodendrocyte number” value turn out when CSc1nc(N)c2ncn([C@@H]3O[C@H](COP(=O)(O)OP(=O)(O)OP(=O)(O)O)[C@H](O)C3O)c2n1 (some centres undefined) [2-Methylthioadenosine triphosphate tetrasodium] was run?
Answer: 4.44

Question: How did the “MBP+ mature oligodendrocyte number” value turn out when CC(=O)C(C)=O [2,3-Butanedione] was run?
Answer: -0.387

Question: With COc1cc(C(O)C(=O)O)ccc1O (racemic) [(±)-Vanillylmandelic acid] as the compound, how does the “MBP+ mature oligodendrocyte number” value read?
Answer: 0.921

Question: With CNC(=O)Nc1ccc(-c2nc(N3CC4CCC(C3)O4)c3cnn(C4CCC5(CC4)OCCO5)c3n2)cc1 as the compound, how does the “MBP+ mature oligodendrocyte number” value read?
Answer: -5.69

Question: How did the “MBP+ mature oligodendrocyte number” value turn out when COC1=C2C[C@@H](C)C[C@H](OC)[C@H](O)[C@@H](C)/C=C(\C)[C@H](OC(N)=O)[C@@H](OC)/C=C\C=C(/C)C(=O)NC(=CC1=O)C2=O [Geldanamycin] was run?
Answer: < -6.01

Question: Which “MBP+ mature oligodendrocyte number” value does the source give for CN1CC2c3ccccc3Oc3ccc(Cl)cc3C2C1 (centres undefined) [Asenapine] here?
Answer: -5.83

Question: With COc1cc(C(=O)NC2CCCNC2)cc(OC)c1OC (centres undefined) [Troxipide] as the compound, how does the “MBP+ mature oligodendrocyte number” value read?
Answer: -0.185

Question: C[C@]12CC[C@@H]3c4ccc(O)cc4CC[C@H]3[C@@H]1CCC2=O [Estrone] was tested. Which “MBP+ mature oligodendrocyte number” value did it give?
Answer: 21.6 ± 26

Question: With CCCCCCCCc1ccc(CCC(N)(CO)CO)cc1 [Fingolimod (FTY720) HCl] as the compound, how does the “MBP+ mature oligodendrocyte number” value read?
Answer: -6.27

Question: How did the “MBP+ mature oligodendrocyte number” value turn out when CCCCCCCC/C=C\CCCCCCCC(=O)NCCc1ccc(O)c(O)c1 [N-Oleoyldopamine] was run?
Answer: < -3.85

Question: For CC(C)Cc1ccc(C(C)C(=O)O)cc1 (racemic) [(±)-Ibuprofen], which “MBP+ mature oligodendrocyte number” value is on record?
Answer: -0.0882

Question: Which “MBP+ mature oligodendrocyte number” value does the source give for COc1cnc(NS(=O)(=O)c2ccc(N)cc2)nc1 [Sulfameter] here?
Answer: -0.917

Question: How did the “MBP+ mature oligodendrocyte number” value turn out when Cc1cccc(CN2CCN(C(c3ccccc3)c3ccc(Cl)cc3)CC2)c1 (centres undefined) [Meclizine 2HCl] was run?
Answer: -4.88

Question: Which “MBP+ mature oligodendrocyte number” value does the source give for CC1CNCCN1S(=O)(=O)c1cccc2cnccc12 (centres undefined) here?
Answer: -1.23

Question: Which “MBP+ mature oligodendrocyte number” value does the source give for CNCCC(Oc1ccccc1OC)c1ccccc1 (centres undefined) [Nisoxetine hydrochloride] here?
Answer: -0.911

Question: Which “MBP+ mature oligodendrocyte number” value does the source give for COc1cc(CCC(C)=O)ccc1O [Vanillylacetone] here?
Answer: 1.35

Question: For O=NN(CCCl)C(=O)NC1CCCCC1 [Lomustine], which “MBP+ mature oligodendrocyte number” value is on record?
Answer: -0.557
